PubChem BioAssay AID651820 (National Center for Advancing Translational Sciences (NCATS), 2012)
Out of some 340,000 compounds screened, about 12,000 (3.5%) were called active. The inconclusive results got no clear call from the source; some entries with a clear call stand among them for comparison. Calls follow the shape of the dose curve; as a rule, active = well fitted inhibition curve with a large enough effect; inconclusive = small, poorly fitted or top-dose-only effect, or another doubt; inactive = no such curve, though single readings can be large or run the other way. No potency is given beside an inconclusive call; the fits are too rough.

test: qHTS Assay for Inhibitors of Hepatitis C Virus (HCV); details: Huh7.5.1 HCVcc-Cre (HCVcc is cell-culture hepatitis C virus) infection, luciferase reporter, 44 h; activity change, negative = inhibition: at 41.8 µM (top of the series)
Outline: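 Cells seeded at 1,000/well and cultured 4 h, then compounds added followed by HCVcc-Cre virus (~0.5 moi). After 44 h further culture, luciferase substrate was added, plates held 15 min at room temperature, and luminescence read for 15 sec.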
% is scaled to controls: 0 for no effect and ±100 for the full control effect; potency is read from the fitted curve at half-maximal effect; tags tell the direction and shape of the fitted curve.

| Compound | activity change, negative = inhibition | Potency |
| --- | --- | --- |
| Cc1nnc(NC(=O)CSc2nnnn2Cc2ccccc2)s1 | inactive: 27.4% |  |
| CCn1c(SCC(=O)Nc2nccs2)nnc1-c1ccc(S(=O)(=O)N2CCCCCC2)cc1 |  | inconclusive [inhibitor, single point] |
| COc1ccc(CCNC(=O)c2cc3c(=O)n4ccccc4nc3n(CCCN3CCOCC3)c2=N)cc1 |  | active: 8.91 µM |
| CC(C)CN1CCN(Cc2cnc(-c3ccc(Cl)cc3)nc2)CC1CCO (stereo not given) |  | inconclusive [inhibitor, partial curve] |
| CN(C)C(=S)N=Nc1[nH]c2ccccc2c1O |  | inconclusive [inhibitor, single point] |
| CCc1ccccc1NC(=O)CN1CCN(C(=O)CCC(=O)N2CCC(c3ccccc3)=N2)CC1 |  | inconclusive [inhibitor, partial curve] |
| Cc1ccccc1NC(=S)N/N=C1\CC(C)(C)Oc2ccc(O)cc21 |  | inconclusive [inhibitor, single point] |
| CSCC[C@H](NC(=O)c1cccc(S(=O)(=O)N2CCCCCC2)c1)c1nc2ccccc2[nH]1 |  | inconclusive [inhibitor, partial curve] |
| COc1ccccc1-c1sc2ccccc2c1C#CC1(O)CCCCC1 |  | inconclusive [inhibitor, partial curve] |
| COc1ccc2c(c1)CCc1cc(C(=O)N3CCN(c4ccc(N5CCOCC5)nn4)CC3)sc1-2 |  | active: 10 µM |
| COc1cc(N2CCCC2)c(OC)cc1/C=C(/C#N)c1cccc(F)c1 |  | inconclusive [inhibitor, partial curve] |
| COc1ccc(OC)c(NC(=O)CCCNC(=O)Cn2cnc3sc(C)c(C)c3c2=O)c1 |  | inconclusive [inhibitor, single point] |
| CCOc1ccc(S(=O)(=O)NCc2ccccn2)cc1NC(=O)c1ccccc1 |  | inconclusive [inhibitor, full curve, poor fit] |
| Cc1ccc(-n2cc(CN3CCC(O)(c4ccccn4)CC3)c(-c3ccc(F)cc3)n2)cc1 |  | inconclusive [inhibitor, single point] |
| O=C(N/N=C/c1cc(Br)c(Br)s1)c1ccncc1 |  | inconclusive [inhibitor, single point] |
| CCOc1cc(N2CCOCC2)c(OCC)cc1NC(=O)Cc1ccccc1OC | inactive: -16.7% |  |
| COc1ccc(S(=O)(=O)N2CCC(C(=O)NCCC(=O)Nc3nccs3)CC2)cc1 | inactive: 2.56% |  |
| CC1CCc2ccccc2N1C(=O)c1cccs1 (stereo not given) | inactive: -5.4% |  |
| O=C(CN1C(=O)COc2ccccc21)NCCN1CCCC1 | inactive: 15.1% |  |
| COc1ccc(/C=C/c2nc3cc(-c4ccccc4)ccc3o2)cc1O |  | inconclusive [inhibitor, partial curve, poor fit] |
| Cn1cc(CN2CCN(c3ccccc3)CC2)c2ccccc21 |  | inconclusive [inhibitor, single point] |
| CCCNC(=O)C(Cc1ccccc1)NC(=O)c1cccc([N+](=O)[O-])c1 (stereo not given) |  | inconclusive [inhibitor, single point] |
| Cc1ccc(OCCOc2ccc(Br)cc2/C=N\NC(N)=O)cc1 |  | inconclusive [inhibitor, single point] |
| COC(=O)c1ccccc1S(=O)(=O)NNC(=O)C12CC3CC(CC(C3)C1)C2 | inactive: 18.1% |  |

| Compound | activity change, negative = inhibition | Potency |
| --- | --- | --- |
| CSc1ccc(S(=O)(=O)Nc2ccc3c4c(cccc24)CC3)cc1 |  | inconclusive [inhibitor, partial curve] |
| COc1ccc(NC(=O)c2cccc(OC(=S)N3CCOCC3)c2)cc1 |  | inconclusive [inhibitor, partial curve] |
| CCOC(=O)C1CCCN(C(=O)c2cn(CC(C)C)c(=O)c3cc(OC)c(OC)cc23)C1 (stereo not given) |  | inconclusive [inhibitor, partial curve] |
| COCCC(=O)N1CCc2c([nH]c3ccccc23)C1C(C)(C)C (stereo not given) | inactive: 7.86% |  |
| COc1ccc(-c2csc(N(CCCN(C)C)C(=O)c3cccs3)n2)cc1 |  | inconclusive [inhibitor, partial curve] |
| Cc1ccsc1CN(C)C(=O)CCc1nnc(COc2ccccc2)o1 | inactive: 1.02% |  |
| CCCc1cc(=O)[nH]c(SCC(=O)c2c(N)n(C3CC3)c(=O)[nH]c2=O)n1 |  | inconclusive [inhibitor, full curve, poor fit] |
| Cc1ccc(-n2nc3c(=O)n(CCCC(=O)NCCN4CCN(C)CC4)nc(C)c3c2C)cc1 | inactive: 16.2% |  |
| CCOc1ccccc1-n1nnnc1SCC(=O)N1CCCC1=O | inactive: 18.3% |  |
| COc1ccc(CNC(=O)c2ccc(CS(=O)(=O)Cc3ccccc3F)o2)cc1 |  | inconclusive [inhibitor, single point] |
| O=C(NC1=C(Nc2ccc(F)cc2)C(=O)c2ccccc2C1=O)c1ccc(Cl)cc1 | inactive: 1.97% |  |
| CCCC(O)(CCN1CCCCC1)c1ccc(OCC)cc1 (stereo not given) |  | inconclusive [inhibitor, single point] |
| CCOC(=O)C[C@H]1c2ccccc2S(=O)(=O)N1Cc1ccc(Cl)cc1 |  | inconclusive [inhibitor, partial curve] |
| C/C(CC(=O)Nc1ccc(F)cc1)=N\NC(=O)c1ccccn1 |  | inconclusive [inhibitor, single point] |
| COc1ccccc1OCCCCOc1ccccc1C(C)=O |  | inconclusive [inhibitor, partial curve, poor fit] |
| O=C(c1ccccc1)c1c[nH]c2cc3c(cc2c1=O)OCO3 | inactive: -7.81% |  |
| CN1CCN(c2cc(N3CCc4ccccc4C3)c(F)cc2[N+](=O)[O-])CC1 |  | inconclusive [inhibitor, partial curve] |
| COc1ccc(CNC(=O)C2CCC(CNS(=O)(=O)c3cccs3)CC2)cc1 (stereo not given) | inactive: -25.2% |  |
| COc1cccc(CN(C)C(=O)CNC(=O)c2ccc(-c3ccccc3)cc2)c1OC |  | active: 3.16 µM |
| CCOC(=O)c1cccc(NC(=O)c2cncc(Br)c2)c1 | inactive: -15.7% |  |
| CC(=O)c1ccc(NC(=O)c2cc(CC(C)C)nc3ccccc23)cc1 |  | inconclusive [inhibitor, partial curve] |
| Oc1c(N=NC(=S)Nc2ccccc2F)c2ccccc2n1Cc1ccccc1 |  | inconclusive [inhibitor, single point] |
| CN1CCN(S(=O)(=O)c2ccc(NS(=O)(=O)c3ccccc3)cc2)CC1 | inactive: 6.88% |  |
| O=C1CCC(C(=O)NCCN2C(=O)S/C(=C\c3cccnc3)C2=O)=NN1 | inactive: 23% |  |

| Compound | activity change, negative = inhibition | Potency |
| --- | --- | --- |
| O=C(NNc1nc2c(F)cc(F)cc2s1)c1ccccc1 | inactive: 13.8% |  |
| CC(C)n1nc(C(=O)Nc2ccc3c(c2)OCO3)c2ccccc2c1=O | inactive: -2.27% |  |
| CCOc1cc(C2Nc3ccccc3NC3=C2C(=O)CC(C)(C)C3)ccc1OC(C)=O (stereo not given) | inactive: 18.6% |  |
| COC(=O)c1cccc(Oc2nc3c(c(=O)n(C)c(=O)n3C)n2Cc2ccc(C)cc2)c1 |  | inconclusive [inhibitor, full curve] |
| CCCCCn1c(N2CCN(Cc3ccccc3)CC2)nc2c1c(=O)[nH]c(=O)n2C |  | active: 10 µM |
| O=C(CCCCn1c(=S)[nH]c2ccsc2c1=O)NCc1ccc2c(c1)OCO2 |  | inconclusive [inhibitor, partial curve] |
| Cc1ccc(CSc2ccc(S(=O)(=O)N3CCCC3)cn2)cc1 |  | inconclusive [inhibitor, partial curve] |
| CCOC(=O)C1=C(C)N=C2c3ccccc3C(=O)C2C1c1ccc(Cl)cc1 (stereo not given) |  | active: 15.8 µM |
| Cc1[nH]c2ccc(C(=O)OCC(=O)Nc3cccc(S(N)(=O)=O)c3)cc2c1C |  | inconclusive [inhibitor, full curve, poor fit] |
| Cc1ccc(C(=O)OCC(=O)c2cc(C)n(CC3CCCO3)c2C)cc1 (stereo not given) |  | inconclusive [inhibitor, single point] |
| Cn1c(SCC(=O)N2CCN(c3ccccc3)CC2)nnc1-c1c[nH]c2ccccc12 |  | inconclusive [inhibitor, partial curve, poor fit] |
| Cc1ccc[n+](CC(=O)c2ccc(Cl)cc2)c1 | inactive: 1.9% |  |
| COc1ccc(S(=O)(=O)N2CCOCC2)cc1C(=O)N(C)CCOc1ccc(Cl)cc1 |  | inconclusive [inhibitor, single point] |
| CCCOc1ccc2ccccc2c1/C=N/n1cnnc1 |  | inconclusive [inhibitor, single point] |
| Cc1ccc2c(c1)c1c(n2CC(O)CN2C(=O)CNC2=O)C(=O)CCC1 (stereo not given) |  | inconclusive [inhibitor, single point] |
| COc1cc(N2CCCC2)ccc1[N+](=O)[O-] |  | inconclusive [inhibitor, single point] |
| O=C(Nc1cccc2ncccc12)c1ccc(Br)c([N+](=O)[O-])c1 |  | active: 12.6 µM |
| COc1ccc(C(=O)NCc2ccc3c(c2)OCO3)cc1S(=O)(=O)N(C)Cc1ccccc1 |  | inconclusive [inhibitor, single point] |
| Clc1ccc(-c2csc(Nc3ccccc3)[n+]2Cc2ccco2)c(Cl)c1 |  | inconclusive [inhibitor, single point] |
| CN(Cc1cnn(Cc2ccccc2)c1)C(=O)c1cccc(S(=O)(=O)N2CCOCC2)c1 |  | inconclusive [inhibitor, single point] |
| Cc1ccc(Nc2nc(NCCO)c3ccccc3n2)cc1C |  | active: 12.6 µM |
| NC(=S)NNc1cccc2cccnc12 |  | inconclusive [inhibitor, partial curve] |
